Results: PMC4336329 (PLoS ONE, 2015)
Hit rate of the full screen: of about 310,000 compounds, about 14,000 (4.5%) showed an effect of 50% or more. Effects have a minus sign here. The list shows a part of the results.

biological target: human ether-à-go-go-related gene (hERG) potassium channel (human, UniProt Q12809); experiment: primary screen, population patch clamp on CHO cells stably expressing hERG
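Also: peak tail current of the secondary pulse compared with the same well before compound.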

human ether-à-go-go-related gene (hERG) potassium channel, sequence (Q12809 whole entry, looked up): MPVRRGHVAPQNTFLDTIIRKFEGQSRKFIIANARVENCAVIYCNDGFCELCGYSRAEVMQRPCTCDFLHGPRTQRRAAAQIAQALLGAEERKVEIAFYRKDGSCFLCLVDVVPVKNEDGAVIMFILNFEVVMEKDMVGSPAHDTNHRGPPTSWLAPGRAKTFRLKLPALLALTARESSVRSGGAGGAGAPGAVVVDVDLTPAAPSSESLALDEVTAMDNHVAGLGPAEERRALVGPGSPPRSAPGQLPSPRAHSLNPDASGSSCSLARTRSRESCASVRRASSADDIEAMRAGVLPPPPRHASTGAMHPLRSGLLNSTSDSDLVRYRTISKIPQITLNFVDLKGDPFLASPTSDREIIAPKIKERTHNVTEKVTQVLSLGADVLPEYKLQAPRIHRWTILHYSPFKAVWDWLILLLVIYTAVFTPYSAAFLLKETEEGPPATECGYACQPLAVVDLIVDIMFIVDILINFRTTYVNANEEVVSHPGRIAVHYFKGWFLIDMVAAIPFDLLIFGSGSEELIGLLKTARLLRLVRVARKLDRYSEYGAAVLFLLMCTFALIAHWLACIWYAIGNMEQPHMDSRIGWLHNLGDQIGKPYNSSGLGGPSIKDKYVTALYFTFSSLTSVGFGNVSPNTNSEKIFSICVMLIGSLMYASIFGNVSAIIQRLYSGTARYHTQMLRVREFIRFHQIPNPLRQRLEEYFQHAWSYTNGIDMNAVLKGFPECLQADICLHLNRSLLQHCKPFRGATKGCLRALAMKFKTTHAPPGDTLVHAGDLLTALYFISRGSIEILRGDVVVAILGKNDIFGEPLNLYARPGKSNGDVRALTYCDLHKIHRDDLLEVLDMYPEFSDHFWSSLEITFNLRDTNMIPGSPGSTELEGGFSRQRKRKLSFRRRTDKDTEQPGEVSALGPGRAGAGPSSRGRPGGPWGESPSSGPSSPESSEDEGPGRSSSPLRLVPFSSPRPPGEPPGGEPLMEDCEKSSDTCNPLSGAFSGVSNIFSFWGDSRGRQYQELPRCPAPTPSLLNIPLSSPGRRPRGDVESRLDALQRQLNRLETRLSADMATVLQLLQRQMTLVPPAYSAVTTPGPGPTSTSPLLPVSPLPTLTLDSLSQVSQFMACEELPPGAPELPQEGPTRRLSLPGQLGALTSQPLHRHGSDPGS

| Compound | hERG current change (%, negative = inhibition) at 10uM [%] |
| --- | --- |
| Cc1ccc(C(=O)c2c3ccc(C(F)(F)F)cc3[n+]([O-])n2CCC(N)=O)cc1 | -66.2 |
| O=C(COc1ccccc1)NCCc1nc2ccccc2[nH]1 | -6.21 |
| CC1CCN(C(=O)c2[nH]cnc2C(=O)N[C@@H](CCCCNC(=O)OC(C)(C)C)C(=O)OC(C)(C)C)CC1 | -10.4 |
| CCCN(CCC)CCNC(=O)CCC(=O)Nc1ccc2nc(N3CCN(C)CC3)cc(C)c2c1 | 17.7 |
| COc1ccc2[n-]c(S(=O)Cc3ncc(C)c(OC)c3C)nc2c1.COc1ccc2[n-]c(S(=O)Cc3ncc(C)c(OC)c3C)nc2c1.[Mg+2] (stereo not shown) [49681830] | -0.361 |
| CCC(C)(C)NC(=O)C(c1cccnc1)N(C(=O)c1csnn1)c1ccc(C)cc1 (stereo not shown) | 10.6 |
| COc1ccc(CSC2=NCCN2)cc1Cl.Cl | -18.2 |
| CC(C)c1ccc(NC(=O)c2cc(Br)ccc2Br)cc1 | 10.6 |
| O=c1[nH]c(Cc2cccs2)nc2scc(-c3ccc(Cl)cc3)c12 | -8.42 |
| Cc1ccc(CN2CCC(NC(=O)c3ccccc3)CC2)cc1 | -75 |
| Cc1ccc(C(=O)OCC(=O)N2C(C)CCCC2C)s1 (stereo not shown) | -2.22 |
| COc1ccc(-c2cc3ccccc3oc2=O)cc1NC(=O)c1cccnc1 | -38.4 |
| CCN(CC(=O)N1CCCCC1)S(=O)(=O)c1ccccc1 | -7.12 |
| Cc1cc(C)cc(NC(=O)N(C)Cc2ccccc2)c1 | 12.3 |
| CCOC(=O)N1CCN(C(=O)CN(C2CCCCC2)S(C)(=O)=O)CC1 | 12.2 |
| Cc1ccc(C(=O)CCC(=O)N2CCN(C(=O)c3ccco3)CC2)cc1 | -56.2 |
| CCOc1ccc(NC(=O)C(=O)N/N=C\c2ccc(CNS(=O)(=O)c3ccccc3)o2)cc1 | 13.6 |
| N/C(=N\OC(=O)Cc1cccs1)c1cccc([N+](=O)[O-])c1 | -32.7 |
| O=C(NNC1=C(C(=O)C(F)(F)F)CCC1)c1cccnc1 | 4.19 |
| CCOc1ccc(CC(=O)Nc2ccc(-c3ccc4nnc(C)n4n3)cc2)cc1 | -40.4 |
| CCOC(=O)C1CCN(S(=O)(=O)c2ccc(-c3nc4ccccc4s3)s2)CC1 | 6.37 |
| Cc1ccc(NC(=O)c2ccc(Cl)nc2)cc1 | 18.1 |

| Compound | hERG current change (%, negative = inhibition) at 10uM [%] |
| --- | --- |
| O=C(Cc1nc2ccccc2s1)c1ccc(O)cc1O | -2.86 |
| CCOc1ccc(/C=C\C(C)=N\O)cc1 | 0.628 |
| O=C(NNc1cc(N2CCOCC2)nc(N2CCOCC2)n1)C12CC3CC(CC(C3)C1)C2 | -2.08 |
| CCS(=O)(=O)N1CCN(c2ccc([N+](=O)[O-])c(NCc3cccnc3)c2)CC1 | -49.1 |
| Cc1nc2[nH]c(=S)n(C)c(=O)c2nc1C | 16.8 |
| CCc1nnc(NC(=O)C2CCCN(S(=O)(=O)c3ccccc3)C2)s1 (stereo not shown) | 5.15 |
| CCc1cc2cc3c(cc2nc1SCC(=O)Nc1nnc(C)s1)OCCO3 | 10.4 |
| CCc1ccccc1NC(=O)NNC(=O)c1ccc2ccccc2c1O | 18.2 |
| O=C(CC(Sc1ccccc1)c1cccs1)c1ccco1 (stereo not shown) | 9.65 |
| COC(=O)c1cccnc1-n1c(=O)c2cccnc2n(Cc2cccc([N+](=O)[O-])c2)c1=O | -25.1 |
| COCCCNc1nc(N)c([N+](=O)[O-])c(NC2CCCCC2)n1 | 9.79 |
| CCn1c(COc2ccc3c(c2)OCO3)nnc1SCC(=O)c1ccccc1 | 9.87 |
| COc1ccc(S(=O)(=O)N2CCc3ccccc32)cc1C(=O)N(CC(C)C)C1CCS(=O)(=O)C1 (stereo not shown) | -48.1 |
| C=CCN(c1ccccc1)S(=O)(=O)c1ccc2c(c1)oc(=O)n2C | 15.1 |
| COC(=O)[C@@]1(Cc2ccc(OC)cc2)[C@H]2c3cc(C(=O)N(C)C)n(CCSCCO)c3C[C@H]2CN1C(=O)c1ccccc1 | -18.4 |
| Cc1ccc(NS(=O)(=O)c2cccc([N+](=O)[O-])c2)nc1 | 12 |
| O=Cc1ccccc1OS(=O)(=O)c1ccccc1 | -28.3 |
| Cc1cc(C(=O)Nc2cc(C(F)(F)F)ccc2N2CCOCC2)no1 | 5.97 |
| CN(C)c1ccc(P(=O)(OCc2ccccc2)C(O)c2ccc(Br)cc2)cc1 (stereo not shown) | 17.4 |
| COC(=O)Nc1sc2c(c1C(N)=O)CCCCCC2 | 11.9 |
| COc1ccc(S(=O)(=O)N(CCc2ccccc2)CC(=O)NCCCO)cc1 | -36 |
